Assay results reported in PubChem BioAssay AID588855 (National Center for Advancing Translational Sciences (NCATS), 2011).
Among all 410,000 compounds or so, about 5,000 (1.2%) were called active. This list was built around the results that the source calls inconclusive (neither active nor inactive); the mix of calls is not that of the screen. The call rests on the fitted dose curve; in most records, active means well fitted inhibition curve with a large enough effect; inconclusive means small, poorly fitted or top-dose-only effect; inactive means no such curve, though single readings can be large or run the other way. Potencies of inconclusive entries are doubtful fits and often do not repeat.

Assay: qHTS for Inhibitors of TGF-b; further: nearly all actives have a fitted effect of over 65% in size
Settings: HepG2 CAGA-GFP TGF-b/SMAD3 reporter, GFP fluorescence, 18 h, TGF-beta stimulated, 500 pg/mL final; series mostly up to 46.1 µM; activity, negative = inhibition: at the top concentration
How it was run: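 Smad-responsive CAGA-GFP expression was quantified in HEPG2 cells exposed to compounds and 500 pg/mL final TGF-beta for 18 h at 37 degrees C; unstimulated wells defined full inhibition.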
On the % scale 0 is the no-effect control and ±100 the full control effect; potency means the concentration at half of the fitted maximal effect; tags describe the fitted curve by direction and shape.

Compound | Potency | activity, negative = inhibition
Fc1ccccc1CSc1nc2ncc(Br)cc2[nH]1 | inconclusive: 2.51 µM [inhibitor, partial curve, poor fit] | –
Oc1[nH]c(N=C2N=c3ccccc3=N2)c2ccccc12 | inconclusive: 6.31 µM [inhibitor, single point] | –
C=CCC[C@H](Cc1ccc(F)cc1)C(=O)OC[C@@H](NC(=O)[C@@H](CC=C)CC(=O)N[C@H](CO)Cc1ccccc1)C(C)(C)C | inconclusive: 35.5 µM [inhibitor, partial curve, poor fit] | –
CCc1ccc2oc(C(=O)NC3CCS(=O)(=O)C3)cc(=O)c2c1 (centres undefined) | – | inactive: -6.55%
O=C(CCNC(=O)c1ccc(Cl)cc1)Nc1ccccc1N1CCCC1 | inconclusive: 35.5 µM [inhibitor, single point] | –
CCOc1ccc(C(CCc2ccccc2)NC(=O)c2ccccc2OC)cc1OCC (centres undefined) | inconclusive: 35.5 µM [inhibitor, single point] | –
O=C(CCS(=O)(=O)Cc1ccccc1)Nc1nncs1 | – | inactive: 0.594%
CNC(=S)N(CCc1c(C)[nH]c2ccccc12)Cc1cccnc1 | – | inactive: 0%
O=C(COC(=O)C1C2CC3OC(=O)C1C3C2)Nc1cccc(Cl)c1 (centres undefined) | – | inactive: -0.0546%
O=S(=O)(c1ccc(NC(=S)N2CCCCC2)cc1)N1CCCCC1 | – | inactive: 0.354%
CCOC(=O)N1CCN(C(=O)CN(c2ccccc2OC)S(=O)(=O)c2ccc(C)cc2)CC1 | – | inactive: 3.17%
CNc1cc(-c2cccc(OC)c2F)nc2ccnn12 | inconclusive: 12.6 µM [inhibitor, single point] | –
O=C(c1ccco1)N1CCN(S(=O)(=O)c2ccc(S(=O)(=O)NC3CCCCC3)cc2)CC1 | inconclusive: 31.6 µM [inhibitor, single point] | –
O=C(Nc1ccc2nc3n(c(=O)c2c1)CCCC3)c1ccc(Cl)nc1 | inconclusive: 5.62 µM [inhibitor, single point] | –
O=S(=O)(c1ccccc1)N1CCC(c2ccncc2)CC1 | inconclusive: 11.2 µM [inhibitor, partial curve, poor fit] | –
COc1ccc(C(c2nnnn2C2CCCC2)N2CCC(C(N)=O)CC2)c(OC)c1 (centres undefined) | inconclusive: 35.5 µM [inhibitor, single point] | –
Fc1ccc2[nH]c3c(NCc4ccco4)ncnc3c2c1 | inconclusive: 22.4 µM [inhibitor, single point] | –
O=C(N/N=C/c1c[nH]c2ccc(Br)cc12)c1ccn(Cc2ccc(Cl)cc2)n1 | inconclusive: 35.5 µM [inhibitor, single point] | –
O=C(CC1NCCc2ccccc21)Nc1ccccc1Cl (centres undefined) | – | inactive: 1.38%
O=C1[C@H]2[C@@H](c3ccc(C(F)(F)F)cc3)N[C@]3(CCCN(Cc4ccc(F)cc4)C3=O)[C@H]2C(=O)N1Cc1ccccc1 | inconclusive: 3.98 µM [inhibitor, full curve, poor fit] | –
CCOc1ccc2c(c1)c1nnc(SCC(=O)N3CCCCC3C)nc1n2C (centres undefined) | – | inactive: -10.2%
COc1cccc(C(N)c2nc(-c3cc(F)cc(F)c3)cs2)c1 (centres undefined) | – | inactive: 21.3%

Compound | Potency | activity, negative = inhibition
CCC(NC(=O)Cc1c(C)c2c(cc(C)c3c(C)c(C)oc32)oc1=O)C(=O)O (centres undefined) | – | inactive: -4.68%
Cn1[nH]c(C(F)(F)F)c(C=Nc2ccc(Cl)cc2)c1=O | – | inactive: -14%
CCOc1cccc(NC(=O)Cc2cccs2)c1 | inconclusive: 35.5 µM [inhibitor, single point] | –
O=C(Nc1cccc2cccnc12)c1ccc(F)cc1 | inconclusive: 8.91 µM [inhibitor, partial curve, poor fit] | –
COc1ccc2cc(C(=O)N/N=C/c3cc(OC)c(OC)c(OC)c3)[nH]c2c1 | – | inactive: -11.4%
CCOC(=O)c1ccc(N2C(=O)c3[nH]nc(-c4ccc(OCC)cc4)c3C2c2ccc(OC)cc2OC)cc1 (centres undefined) | inconclusive: 7.94 µM [inhibitor, partial curve, poor fit] | –
Cc1nc(-c2cccc(S(=O)(=O)N3CC(C)OC(C)C3)c2)cs1 (centres undefined) | inconclusive: 14.1 µM [inhibitor, single point] | –
Cc1ccc(C(=O)NC(=S)Nc2ccc(NC(=O)c3cccc(Cl)c3)cc2)cc1 | inconclusive: 35.5 µM [inhibitor, single point] | –
O=C(Cc1ccccc1)N(Cc1cccnc1)c1nc2ccc(F)cc2s1 | inconclusive: 11.2 µM [inhibitor, partial curve, poor fit] | –
Cc1ccc(OCC(=O)NS(=O)(=O)c2ccc(Cl)cc2)cc1 | inconclusive: 22.4 µM [inhibitor, single point] | –
COc1ccc2sc(N(CCN(C)C)C(=O)c3ccc4ccccc4c3)nc2c1 | – | inactive: 0.85%
C[C@H]1CN([C@@H](C)CO)C(=O)Cc2cc(NC(=O)Cc3ccccc3)ccc2O[C@H]1CN(C)C(=O)Nc1cccc2ccccc12 | inconclusive: 6.31 µM [inhibitor, single point] | –
Cc1ccc(S(=O)(=O)N(CC(=O)O)Cc2ccco2)cc1 | – | inactive: -2.55%
COCCNC(=O)c1nn(-c2ccc(Cl)cc2)nc1CO | – | inactive: -8.18%
Cc1cc(C(=O)N[C@H](c2ccccc2)[C@@]2(C)C[C@@H]2[C@@H](C)C(=O)Nc2ccc3ccccc3c2)n(C)n1 | inconclusive: 22.4 µM [inhibitor, single point] | –
CCCN(CCC)S(=O)(=O)c1ccc(Cl)c([N+](=O)[O-])c1 | inconclusive: 12.6 µM [inhibitor, single point] | –
O=S(=O)(Nc1nc2ccccc2nc1NCc1ccco1)c1ccc(Cl)cc1 | inconclusive: 28.2 µM [inhibitor, single point] | –
CC(C)c1cc(-c2nc(-c3ccccc3)no2)n[nH]1 | inconclusive: 12.6 µM [inhibitor, partial curve] | –
CC(C)(C)c1cc(OS(C)(=O)=O)ccc1O | – | inactive: 12.7%
CCC(C)(C)NC(=O)C(c1ccccc1)N(Cc1cccs1)C(=O)Cn1nnc2ccccc21 (centres undefined) | – | inactive: -10.6%
CN(CC(=O)Nc1ccccc1Cl)S(=O)(=O)c1ccc(C(=O)N2CCOCC2)s1 | – | inactive: -14.6%
COc1ccc(-c2c(C)cc3oc(=O)cc(-c4ccccc4)c3c2C)cc1C=O | inconclusive: 35.5 µM [inhibitor, single point] | –
